PubChem BioAssay AID1347055 (National Center for Advancing Translational Sciences (NCATS), 2019)
Screen size: about 54,000 compounds; about 120 (0.22%) were called active. Inconclusive results, whose numbers are uncertain, are shown with a selection of clear calls. Calls come from the whole dose curve; as a rule, active = well fitted inhibition curve with a large enough effect; inconclusive = small, poorly fitted or top-dose-only effect, or effect the other way; inactive = flat fitted curve, though single readings scatter. No potency is given beside an inconclusive call; the fits are too rough.

The compounds below were run against Fumarate hydratase, mitochondrial (Homo sapiens) (UniProt P07954) (assay: Identification of activators of human fumarate hydratase by quantitative high-throughput screening). Details: FH coupled MDH/diaphorase resazurin fluorescence, 15 min; activity change, negative = inhibition: at 79.9 µM (top of the series).
Chain of UniProt P07954 (P07954 whole entry, looked up): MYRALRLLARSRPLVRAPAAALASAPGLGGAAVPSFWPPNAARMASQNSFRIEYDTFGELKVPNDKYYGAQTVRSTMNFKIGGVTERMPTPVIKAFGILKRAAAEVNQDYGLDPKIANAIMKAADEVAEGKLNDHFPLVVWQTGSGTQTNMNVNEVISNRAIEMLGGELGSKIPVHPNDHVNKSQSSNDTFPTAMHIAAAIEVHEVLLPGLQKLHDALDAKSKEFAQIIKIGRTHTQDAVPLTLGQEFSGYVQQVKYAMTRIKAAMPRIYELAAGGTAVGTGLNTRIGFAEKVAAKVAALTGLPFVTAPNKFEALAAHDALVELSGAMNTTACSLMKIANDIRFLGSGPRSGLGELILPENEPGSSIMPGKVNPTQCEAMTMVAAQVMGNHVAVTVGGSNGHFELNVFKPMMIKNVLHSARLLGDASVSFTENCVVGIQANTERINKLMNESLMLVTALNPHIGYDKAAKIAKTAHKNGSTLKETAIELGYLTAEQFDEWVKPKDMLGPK
% is set by controls: 0 for no effect and ±100 for the full control effect; potency is the fitted concentration of half-maximal effect; tags give direction and shape of the fitted curve.
Note: the screen sought activators but most active calls are inhibition curves; nearly all actives have a fitted effect of over 45% in size.

SMILES | Potency | activity change, negative = inhibition
CCOc1ccccc1NC(=O)CSc1ncc(S(=O)(=O)c2ccc(C(C)(C)C)cc2)c(=O)[nH]1 | inconclusive [inhibitor, single point] | –
CC1=CC(=O)OC(C)(CC(C)(O)C(=O)O)C1 (centres undefined) | inactive | –
CN(C)c1ccc(C(CNS(=O)(=O)c2ccc(F)cc2)N2CCCC2)cc1 (centres undefined) | inactive | –
COc1cccc(-n2c(-c3ccco3)nc3c(cnn3-c3ccc(C)cc3)c2=O)c1 | inconclusive [inhibitor, single point] | –
CCOc1ccc(NS(=O)(=O)c2ccc3[nH]cc(C(=O)NC4CCCC4)c(=O)c3c2)cc1 | inactive | –
Cc1cccc(NC(=O)CCNS(=O)(=O)c2cccc3nonc23)c1 | inactive | –
Cc1ccc(C)c(Cn2c(SCC(=O)N(C)Cc3ccccc3)nc3ccccc32)c1 | inconclusive [inhibitor, single point] | –
N#Cc1c(O)c2c(-c3ccc(-c4ccccc4O)cc3)csc2[nH]c1=O | inconclusive [inhibitor, single point] | –
CC1NC(=O)CNC(=O)C(C(C)C)NC(=O)C2CCCN2C(=O)C(C(C)C)NC(=O)C(Cc2c[nH]c3ccccc23)NC1=O (centres undefined) | inactive | –
Cc1ccc(C(=O)NCc2ccc3c(c2)CCN3C(=O)c2ccc(C)cc2)cc1 | inactive | –
CCOc1ccc2c(c1)c(=O)c(C(=O)c1ccc3c(c1)OCO3)cn2Cc1cccc(F)c1 | inconclusive [inhibitor, single point] | –
CCOc1ccc(-n2c(C)nc3cc(C(=O)NCc4ccc(C)cc4)ccc32)cc1 | inconclusive [inhibitor, partial curve] | –
COc1ccc(-c2ccc(-c3noc(-c4cc(OC)cc(OC)c4)n3)c(OC)n2)cc1 | inconclusive [inhibitor, single point] | –
O=C(Nc1ccc2nc(SCCOc3ccccc3Cl)sc2c1)c1ccco1 | inconclusive [inhibitor, partial curve, poor fit] | –
CCc1cccc(NC(=O)CSc2n[nH]c(-c3ccccc3Cl)n2)c1 | inconclusive [inhibitor, partial curve] | –
COc1cccc(-c2nn(C)c3sc(C(=O)NCCc4cccc(C)c4)cc23)c1 | inconclusive [inhibitor, partial curve, poor fit] | –
Cc1cc(Nc2nn(-c3ccccc3)c(=O)c3ccccc23)n[nH]1 | inactive | –
Cc1ccc(-n2ncc3c(NC4CCCC4)ncnc32)cc1 | inactive | –
Cc1ccc(NC(=O)CSc2cn(CC(=O)N3CCOCC3)c3ccccc23)cc1Cl | inconclusive [inhibitor, single point] | –
COc1ccc(S(=O)(=O)c2c(O)c(C)cc(NS(=O)(=O)c3ccc(Cl)cc3)c2C(C)C)cc1 | inconclusive [inhibitor, partial curve, poor fit] | –
COc1ccc(-c2noc(-c3ccc(N4CCN(C)CC4)c([N+](=O)[O-])c3)n2)cc1 | inactive | –
COC1C(CO)OC(n2cnc3c(=O)[nH]cnc32)C1O (centres undefined) | inactive | –

SMILES | Potency | activity change, negative = inhibition
NC(=O)c1cnc(NCCc2ccc(O)c(Cl)c2)nc1NCc1ccccc1 | inactive | –
COc1ccc(NC(=O)CSC2=Nc3ccccc3C3=NC(CC(=O)NCc4ccccc4OC)C(=O)N23)cc1Cl (centres undefined) | inconclusive [inhibitor, partial curve, poor fit] | –
O=C(CSc1ncc2c(n1)-c1cc(Cl)ccc1N(Cc1ccccc1)S2(=O)=O)Nc1ccc(F)cc1F | inconclusive [inhibitor, single point] | –
COc1ccc(S(=O)(=O)NCc2cccn2Cc2cccc(C)c2)cc1Cl | inconclusive [inhibitor, single point] | –
CCc1ccc(C2CC(=O)c3c([nH]c(C(=O)OC4CCC(C)CC4)c3C)C2)cc1 (centres undefined) | inactive | –
COc1ccc(-c2nc(SCC(=O)Nc3ccccc3)c(-c3ccc(F)cc3)[nH]2)cc1OC | inconclusive [inhibitor, partial curve, poor fit] | –
COc1ccc(CCCc2nnc(SCC(=O)Nc3cccc(C)c3)o2)cc1C | inconclusive [inhibitor, single point] | –
Cc1nc2c(c(C)nn2-c2ccccc2)c(C)c1CCC(=O)Nc1ccc(F)cc1 | inactive | –
COc1cccc2c1[C@@H]1CN(CCCCn3c(=O)[nH]c4c(sc5ncc(-c6ccccc6)nc54)c3=O)C[C@@H]1CO2 | inconclusive [inhibitor, single point] | –
COc1c2ccoc2cc2oc(CO[C@@H]3O[C@H](CO)[C@@H](O)[C@H](O)[C@H]3O)cc(=O)c12 | inactive | –
Cn1c(=O)oc2cc(S(=O)(=O)CCC(=O)NCCc3ccccc3)ccc21 | inconclusive [inhibitor, partial curve] | –
Cc1cccn2c(=O)c(/C=C(\C#N)c3nc4ccccc4s3)c(Oc3ccc(Br)cc3)nc12 | inconclusive [inhibitor, full curve, poor fit] | –
COc1ccc(-c2noc(CSc3nnc(-c4ccccc4)n3-c3ccc(F)cc3)n2)c(OC)c1 | inconclusive [inhibitor, partial curve, poor fit] | –
Cc1ccc(S(=O)(=O)N(CC(=O)N2CCc3ccccc3C2)c2ccc(C)c(C)c2)cc1 | inconclusive [inhibitor, partial curve] | –
O=C(CN1CCN(c2ccc(Cl)cc2)CC1)Nc1ccc(Cl)c(C(F)(F)F)c1 | inconclusive [inhibitor, single point] | –
Cn1nnc(-c2ccc(-c3ccc(N4C[C@H](COP(=O)(O)O)OC4=O)cc3F)cn2)n1 | inactive | –
COc1ccc(N2CCN(C(=O)c3ccc(NC(=O)c4nsc5ccccc45)cc3)CC2)cc1 | inconclusive [inhibitor, partial curve] | –
CCOc1ccc2oc(=O)cc(CN3CCN(C(=O)c4cccc(F)c4)CC3)c2c1 | inactive | –
CCn1cc2nc(SCc3ccccc3Cl)n(CCc3ccccc3)c(=O)c2n1 | inconclusive [inhibitor, partial curve] | –
COc1cc(NC(=O)c2ccc(-c3nc(COc4ccccc4)c(C)o3)cc2)cc(OC)c1 | inconclusive [inhibitor, partial curve, poor fit] | –
O=C(O)CC(O)C(=O)O (centres undefined) | inconclusive [activator, single point] | –
Cc1ccccc1-c1noc(-c2cc3ccccc3oc2=O)n1 | inactive | –

SMILES | Potency | activity change, negative = inhibition
Cc1ccc(-n2ncc(C(=O)Nc3ccc4c(c3)OCCO4)c2C2CCN(C(=O)OC(C)(C)C)CC2)cc1 | inconclusive [inhibitor, single point] | –
CC1CCN(S(=O)(=O)c2ccc3c(c2)oc(=O)n3CC(=O)NC(C)c2ccccc2)CC1 (centres undefined) | inconclusive [inhibitor, single point] | –
O=C1NCc2c1c1c3ccccc3[nH]c1c1[nH]c3ccccc3c21 | inconclusive [inhibitor, single point] | –
N#Cc1ccc(-c2cnc3[nH]cc(NC(=O)c4cccnc4)c3c2)cc1 | inactive | –
Cc1cc(C)c2c(CC(=O)Nc3ccc(F)cc3)coc2c1 | inconclusive [inhibitor, single point] | –
COc1ccc(CNC(=O)Cn2nc3c(cc2=O)CCCC3)cc1 | inconclusive [inhibitor, single point] | –
C/C(=C\CC/C(C)=C/CC[C@]1(C)CCc2cc(O)cc(C)c2O1)CC/C=C(\C)C(=O)O | inconclusive [inhibitor, single point] | –
Cc1cc(C)cc(NC(=O)c2cc(S(=O)(=O)NCCC3=CCCCC3)ccc2F)c1 | inconclusive [inhibitor, single point] | –
O=S(=O)(Nc1ccc2nc(-c3ccc(F)cc3)oc2c1)c1ccccc1 | inconclusive [inhibitor, single point] | –
CCCCN1C(=O)c2[nH]nc(-c3ccccc3O)c2C1c1cc(Br)c(O)c(OC)c1 (centres undefined) | inconclusive [inhibitor, single point] | –
O=S(=O)(NCCc1nnc2ccc(SCc3ccc(Cl)cc3Cl)nn12)c1ccccc1 | inconclusive [inhibitor, partial curve] | –
CCOc1ccc(CCNC(=O)c2ccc3c(Cl)c4c(nc3c2)CCCC4)cc1 | inconclusive [inhibitor, partial curve] | –
Cn1c(=O)c(=O)n(C)c2cc(N3CCOCC3)c(NS(=O)(=O)c3ccc(Cl)cc3)cc21 | inconclusive [inhibitor, partial curve] | –
Cc1ccccc1C#Cc1ccc(CCC(=O)O)cc1 | inactive | –
CCN(CC)c1ccc(NS(=O)(=O)c2ccc(-c3cnc(C4CC4)o3)cc2)c(C)c1 | inconclusive [inhibitor, single point] | –
COc1ccc(CCNS(=O)(=O)c2ccc3c(c2)CC(C)N3C(=O)C2CCC2)cc1OC (centres undefined) | inactive | –
CCOc1ccc(CC(=O)NCCc2csc(-c3ccc(C)cc3)n2)cc1 | inactive | –
CCOc1ccc(CCNC(=O)c2sc3nc4n(c(=O)c3c2C)CCCC4)cc1OCC | inconclusive [inhibitor, partial curve, poor fit] | –
Cc1ccc2[nH]c(CSc3nnc(NC(=O)COc4ccccc4)s3)cc(=O)c2c1 | inactive | –
O=C(CSC1=Nc2ccccc2C2=NC(CC(=O)NC3CCCCC3)C(=O)N12)Nc1ccc(F)cc1 (centres undefined) | – | inconclusive: -32.1% [inhibitor]
